Laboratory results: the RNAGym collection of RNA variant scans (doi:10.1073/pnas.2313332121)
This sample is rich in variants without activity.

B1: TPR 5TU (parent)
chain: GGAUCUUCUCGAUCUAACAAAAAAGACAAAUCUGCCACAAAGCUUGAGAGCAUCUUCGGAUGCAGAGGCGGCAGCCUUCGGUGGCGCGAUAGCGCCAACGUUCUCAACUAUGACACGCAAAACGCGUGCUCCGUUGAAUGGAGUUUAUCAUG

Variants of: B1
Assay: polymerase ribozyme fitness, log enrichment relative to wild type (log ratio); higher = more active; in vitro selection for triplet polymerase activity
How it was run: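 The heterodimeric triplet polymerase ribozyme's subunits were each mutagenized into PCR-built libraries and transcribed. Every library was selected once, in triplicate, by annealing with a biotinylated primer, the partner subunit and triplets, incubating frozen at −7 °C, gel-excising extended constructs, capturing on streptavidin beads and running RT-PCR. Input and output libraries were Illumina-sequenced, with genotypes kept only at ≥10 input reads and ≥1 read per output. Fitness, from inverse-variance-weighted replicate averages, is the base-2 logarithm of genotype enrichment over wild-type enrichment.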

Row | Variant | polymerase ribozyme fitness (log ratio)
1 | GGAUCUUCUCGAUCUAACAAAAAAGACAAAUCUGCCACAAAGCUUGAGAGCAUCUUCGGAUGCAGAGGCGGCAGCCUUCGGUGGCGCGAUAGCGCCAACGUGCUCAACUAUGACACGCAUAACGCGUGCUCCGUUGAAUGGAGUUUAUCAUG | -1.94
2 | GGAUCUUCUCGAUCUAACAAAAAAGACAAAUCUGCCACAAAGCUUGAGAGCAUCUUCGGAUGCAGAGGCGGCAGCCUUCGGUGGCGCGAUAGCGCCAACGUGCUCAACUAUGACACGCAAAACGCGUGCUCCGUUGAAUGGAGUUUAUCAUU | ≤ -4.2
3 | GGAUCUUCUCGAUCUAACAAAAAAGACAAAUCUGCCACAAAGCUUGAGAGCAUCUUCGGAUGCAGAGGCGGCAGCCUUCGGUGGCGCGAUAGCGCCAACGUCCUCAACUAUGACACGCAAAACGCGUGCUUCGGUGAAUGGAGUUUAUCAUG | -4.13
4 | GGAUCUUCUCGAUCUAACAAAAAAGACAAAUCUGCCACAAAGCUUGAGAGCAUCUUCGGAUGCAGAGGCGGCAGCCUUCGGUGGCGCGAUAGCGCCAACGUGCUCAACUAUGACACGCAAUACGCGUGCUCCGUUGAAUGGAGUUUAUCAUG | -2.32
5 | GGAUCUUCUCGAUCUAACAAAAAAGACAAAUCUGCCACAAAGCUUGAGAGCAUCUUCGGAUGCAGAGGCGGCAGCCUUCGGUGGCGCGAUAGCGCCAACGGUCUCAACUAUGACACGCAAAACGCGUGCUCCUUUGAAUGGAGUUUAUCAUG | -2.8
6 | GGAUCUUCUCGAUCUAACAAAAAAGACAAAUCUGCCACAAAGCUUGAGAGCAUCUUCGGAUGCAGAGGCGGCAGCCUUCGGUGGCGCGAUAGCGCCAACGGUCUCAACUAUGACACACAAAACGCGUGCUCCUUUGAAUGGAGUUUAUCAUG | -4.1
7 | GGAUCUUCUCGAUCUAACAAAAAAGACAAAUCUGCCACAAAGCUUGAGAGCAUCUUCGGAUGCAGAGGCGGCAGCCUUCGGUGGCGCGAUAGCGCCAACGUGCUCAACUAUGACACGCAAAACGCGUGCUCCAUUGAAUGGAGUUUAUCAUG | ≤ -4.2
8 | GGAUCUUCUCGAUCUAACAAAAAAGACAAAUCUGCCACAAAGCUUGAGAGCAUCUUCGGAUGCAGAGGCGGCAGCCUUCGGUGGCGCGAUAGCGCCAACGGUCUCAACUAUGACACGCAAAACACGUGCUCCGUUGAAUGGAGUUUAUCAUG | 0.852
9 | GGAUCUUCUCGAUCUAACAAAAAAGACAAAUCUGCCACAAAGCUUGAGAGCAUCUUCGGAUGCAGAGGCGGCAGCCUUCGGUGGCGCGAUAGCGCCAACGUUGUCAACUAUGACACGCAAAACGCGUGCUCCGUUGAGUGGAGUUUAUCAUG | -3.66
10 | GGAUCUUCUCGAUCUAACAAAAAAGACAAAUCUGCCACAAAGCUUGAGAGCAUCUUCGGAUGCAGAGGCGGCAGCCUUCGGUGGCGCGAUAGCGCCAACGUCCUCAACUAUGACACGCAAAACGCGUGCUCCGGUUAUUGGAGUUUAUCAUG | ≤ -4.2
11 | GGAUCUUCUCGAUCUAACAAAAAAGACAAAUCUGCCACAAAGCUUGAGAGCAUCUUCGGAUGCAGAGGCGGCAGCCUUCGGUGGCGCGAUAGCGCCAACGUUAUCAUCUAUGACACGCAAAACGCGUGCUCCGAUGAAUGGAGUUUAUCAUG | ≤ -4.2
12 | GGAUCUUCUCGAUCUAACAAAAAAGACAAAUCUGCCACAAAGCUUGAGAGCAUCUUCGGAUGCAGAGGCGGCAGCCUUCGGUGGCGCGAUAGCGCCAACGGUCUCAACUAUGACACGCAAAACGCGUUCUCCGUUGAAUGGAGGUUAUCAUG | -4
13 | GGAUCUUCUCGAUCUAACAAAAAAGACAAAUCUGCCACAAAGCUUGAGAGCAUCUUCGGAUGCAGAGGCGGCAGCCUUCGGUGGCGCGAUAGCGCCAACGGUCUCAACUAUGACACGCAAAACGCGUGCUCCGUUAAAUGGAGUUUAUCAUG | 0.652
14 | GGAUCUUCUCGAUCUAACAAAAAAGACAAAUCUGCCACAAAGCUUGAGAGCAUCUUCGGAUGCAGAGGCGGCAGCCUUCGGUGGCGCGAUAGCGCCAACGUUAUCAACGAUGACACGCAAAACGCGUGCUCCGUUGAAUGGAGUUUAUCAUG | -3.53
15 | GGAUCUUCUCGAUCUAACAAAAAAGACAAAUCUGCCACAAAGCUUGAGAGCAUCUUCGGAUGCAGAGGCGGCAGCCUUCGGUGGCGCGAUAGCGCCAACGUUGUCAACUAUGACCCGCAAAACGCGUGCUCCGUUGGAUGGAGUUUAUGAUG | ≤ -4.2
16 | GGAUCUUCUCGAUCUAACAAAAAAGACAAAUCUGCCACAAAGCUUGAGAGCAUCUUCGGAUGCAGAGGCGGCAGCCUUCGGUGGCGCGAUAGCGCCAACGUUAUCAACUAUGACACGCAAAACGCGUGCUCCGUUGAAUGGAGUUUAUCGUG | -4.09
17 | GGAUCUUCUCGAUCUAACAAAAAAGACAAAUCUGCCACAAAGCUUGAGAGCAUCUUCGGAUGCAGAGGCGGCAGCCUUCGGUGGCGCGAUAGCGCCAACGUUGUCAACUAUGACACGCAAAACGCGUGCUCCGUUGAAUGGAGUUUAUCAUG | -1.4
18 | GGAUCUUCUCGAUCUAACAAAAAAGACAAAUCUGCCACAAAGCUUGAGAGCAUCUUCGGAUGCAGAGGCGGCAGCCUUCGGUGGCGCGAUAGCGCCAACGUUAUCAACUAUGACACGCAAAACGCGUGCUCCGUUGAAUGGAGUUUAUCAUG | -1.23
19 | GGAUCUUCUCGAUCUAACAAAAAAGACAAAUCUGCCACAAAGCUUGAGAGCAUCUUCGGAUGCAGAGGCGGCAGCCUUCGGUGGCGCGAUAGCGCCAACGUUAUCAACUAUGACACGCACAACACGUGCUCCGAUGAAUGGAGUUUAUCAUG | -3.66

Row | Variant | polymerase ribozyme fitness (log ratio)
20 | GGAUCUUCUCGAUCUAACAAAAAAGACAAAUCUGCCACAAAGCUUGAGAGCAUCUUCGGAUGCAGAGGCGGCAGCCUUCGGUGGCGCGAUAGCGCCAACGUUGUCAACUAUGACACGCAUAACGCGUGCUCCGUUGAAUGGAGUUGAUCAUG | -1.37
21 | GGAUCUUCUCGAUCUAACAAAAAAGACAAAUCUGCCACAAAGCUUGAGAGCAUCUUCGGAUGCAGAGGCGGCAGCCUUCGGUGGCGCGAUAGCGCCAACGUGCUCAACUAUGACACGCAAAACGCGUGCUCCGUUGAAUGGUGUUUAUCAUG | -3.35
22 | GGAUCUUCUCGAUCUAACAAAAAAGACAAAUCUGCCACAAAGCUUGAGAGCAUCUUCGGAUGCAGAGGCGGCAGCCUUCGGUGGCGCGAUAGCGCCAACGUUGUUAACUAUGACACGCAAGACGCGUGCUCCGUUGAAUGGAGUUUAUCAUG | ≤ -4.2
23 | GGAUCUUCUCGAUCUAACAAAAAAGACAAAUCUGCCACAAAGCUUGAGAGCAUCUUCGGAUGCAGAGGCGGCAGCCUUCGGUGGCGCGAUAGCGCCAACGUUGUCUUCUAUGACACGCAAAACGCGUGCUCCGUUGAACGGAGGCUAUCAUG | ≤ -4.2
24 | GGAUCUUCUCGAUCUAACAAAAAAGACAAAUCUGCCACAAAGCUUGAGAGCAUCUUCGGAUGCAGAGGCGGCAGCCUUCGGUGGCGCGAUAGCGCCAACGUCCUCAACUAUGAGACGCAAAACGCGUGCUCCGUUGAAUGGAGUUUAUCAUG | -4.11
25 | GGAUCUUCUCGAUCUAACAAAAAAGACAAAUCUGCCACAAAGCUUGAGAGCAUCUUCGGAUGCAGAGGCGGCAGCCUUCGGUGGCGCGAUAGCGCCAACGUGCCCAACUAUGACACGCAAAACGCGUGCUCCGUUGAAUGGAGUUUAUCAUG | ≤ -4.2
26 | GGAUCUUCUCGAUCUAACAAAAAAGACAAAUCUGCCACAAAGCUUGAGAGCAUCUUCGGAUGCAGAGGCGGCAGCCUUCGGUGGCGCGAUAGCGCCAACGGUCUCAACUAUGACACGCAAAACGCGUGCUCCGAUGAAUGGAGCUUAUCUUG | -4.09
27 | GGAUCUUCUCGAUCUAACAAAAAAGACAAAUCUGCCACAAAGCUUGAGAGCAUCUUCGGAUGCAGAGGCGGCAGCCUUCGGUGGCGCGAUAGCGCCAACGUUGUCAACUAUGACACGCAAAACGCGUGCUCCGUUGAAUGUAGUUUAUCAUG | -3.36
28 | GGAUCUUCUCGAUCUAACAAAAAAGACAAAUCUGCCACAAAGCUUGAGAGCAUCUUCGGAUGCAGAGGCGGCAGCCUUCGGUGGCGCGAUAGCGCCAACGUUGUCAACUAUGACACGCAAAAGGCGUGCUCCGUUUAAUGGAGUUUAUCAUG | -2.77
29 | GGAUCUUCUCGAUCUAACAAAAAAGACAAAUCUGCCACAAAGCUUGAGAGCAUCUUCGGAUGCAGAGGCGGCAGCCUUCGGUGGCGCGAUAGCGCCAACGUGCCCAACUAUGACACGCAAAACGCGUGCUCCGUUGAAUGGAGUUUAACUUG | ≤ -4.2
30 | GGAUCUUCUCGAUCUAACAAAAAAGACAAAUCUGCCACAAAGCUUGAGAGCAUCUUCGGAUGCAGAGGCGGCAGCCUUCGGUGGCGCGAUAGCGCCAACGGUCUCAACUAUGACACGCAAAACGCGUGCUCCGUUGAAUGGAGUUUAUCGUG | -0.649
31 | GGAUCUUCUCGAUCUAACAAAAAAGACAAAUCUGCCACAAAGCUUGAGAGCAUCUUCGGAUGCAGAGGCGGCAGCCUUCGGUGGCGCGAUAGCGCCAACGUUGUCAACUAUGACACUCAAAACGCGUGCUCCGUUGAAUGGAGUUUAUCAUG | -0.61
32 | GGAUCUUCUCGAUCUAACAAAAAAGACAAAUCUGCCACAAAGCUUGAGAGCAUCUUCGGAUGCAGAGGCGGCAGCCUUCGGUGGCGCGAUAGCGCCAACGUACUCAACUAUGACACGCAAAACGCGUGCUCCGUUGAAAGGAGUUUAUCAUG | ≤ -4.2
33 | GGAUCUUCUCGAUCUAACAAAAAAGACAAAUCUGCCACAAAGCUUGAGAGCAUCUUCGGAUGCAGAGGCGGCAGCCUUCGGUGGCGCGAUAGCGCCAACGUGGUCAACUAUGACACUCAAAACGCGUUCUCCGUUGAAUGUAGUUUAUCAUG | ≤ -4.2
34 | GGAUCUUCUCGAUCUAACAAAAAAGACAAAUCUGCCACAAAGCUUGAGAGCAUCUUCGGAUGCAGAGGCGGCAGCCUUCGGUGGCGCGAUAGCGCCAACGUUGUCAACUUUGACACGCAAAACGCGUGUUCCGUUGAAUGUAGUUUAUCAUG | ≤ -4.2
35 | GGAUCUUCUCGAUCUAACAAAAAAGACAAAUCUGCCACAAAGCUUGAGAGCAUCUUCGGAUGCAGAGGCGGCAGCCUUCGGUGGCGCGAUAGCGCCAACGUCCUCAACUAUGACACGCAAAACGCGUGCUCCGUUGAAUGGAGUUUAUCCUG | -4.08
36 | GGAUCUUCUCGAUCUAACAAAAAAGACAAAUCUGCCACAAAGCUUGAGAGCAUCUUCGGAUGCAGAGGCGGCAGCCUUCGGUGGCGCGAUAGCGCCAACGUUGUCAACUAUGACACGCAAGACGCGUGCUCCGUUGAAUGGAGUUUAUCAUG | -1.32
37 | GGAUCUUCUCGAUCUAACAAAAAAGACAAAUCUGCCACAAAGCUUGAGAGCAUCUUCGGAUGCAGAGGCGGCAGCCUUCGGUGGCGCGAUAGCGCCAACGUGCUCAACUAUGACACGCAAAACGCGUGCUCCGUUUUAUGGAGUUUAUGAUG | ≤ -4.2
38 | GGAUCUUCUCGAUCUAACAAAAAAGACAAAUCUGCCACAAAGCUUGAGAGCAUCUUCGGAUGCAGAGGCGGCAGCCUUCGGUGGCGCGAUAGCGCCAACGUGCUCAACUAUGACACGCAAAACGCGUGCUCCGUUGAAUGCCGUUAAUCAUG | ≤ -4.2
